From PubChem BioAssay AID1745845 (National Center for Advancing Translational Sciences (NCATS), 2022)
The whole screen tested about 360,000 compounds, of which about 2,600 (0.72%) were called active. The shares of active, inactive and inconclusive entries below differ from those in the screen. Calls follow the shape of the dose curve; as a rule, active = well fitted inhibition curve with a large enough effect; inconclusive = small, poorly fitted or top-dose-only effect; inactive = no such curve, though single readings can be large or run the other way. Potencies of inconclusive entries are doubtful fits and often do not repeat.

assay: Primary qHTS for Inhibitors of ATXN expression; details: HEK-293 ATXN2-luciferase reporter, luminescence, 24 h; activity change, negative = inhibition: at 57 µM (top of the series); also: nearly all actives have a fitted effect of over 55% in size
In short: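 qHTS (up to 57 uM final) was run with 24 h compound exposure of reporter cells at 37 °C. Each well was multiplexed: SteadyGlo luminescence measured ATXN2-luciferase expression after a fluorogenic Gly-Phe-AFC viability readout (25 uM final).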
% is scaled to controls: 0 for no effect and ±100 for the full control effect; potency is read from the fitted curve at half-maximal effect; tags tell the direction and shape of the fitted curve.

Question: Which Potency does the source give for Cn1c(=O)c([N+](=O)[O-])c(-n2cnc3ccccc32)c2ccccc21 here?
Answer: inconclusive: 39.8 µM [inhibitor, single point]

Question: Which Potency does the source give for COc1ccc(OC)c(S(=O)(=O)NCc2ccc(N3CCN(C)CC3)cc2)c1 here?
Answer: inactive

Question: Which Potency does the source give for COc1ccc(/C=C/C(=O)NC(=S)Nc2ccc(C(=O)O)cc2)cc1 here?
Answer: inactive

Question: For NC1=NC[C@@H](CC2CCCCC2)N1CCc1cc(C(F)(F)F)cc(C(F)(F)F)c1, which Potency is on record?
Answer: active: 20 µM

Question: With CCCn1nnnc1SCC(=O)NCc1ccc(OC)cc1 as the molecule, how does the Potency read?
Answer: inactive

Question: With Cc1ccc2onc(CC(=O)N3CCN(c4cc(Cl)ccc4C)CC3)c2c1 as the molecule, how does the Potency read?
Answer: inconclusive: 31.6 µM [inhibitor, partial curve, poor fit]

Question: For CCCn1c(C)cc(C(=O)COC(=O)c2ccc[nH]c2=O)c1C, which Potency is on record?
Answer: inconclusive: 25.1 µM [inhibitor, partial curve, poor fit]

Question: For O=C(O)CCCn1cc(NC(=O)COc2cccc(Cl)c2)cn1, which Potency is on record?
Answer: inconclusive: 0.708 µM [inhibitor, partial curve, poor fit]

Question: Which Potency does the source give for CCCCCn1c(CCNC(=O)c2ccc(F)cc2)nc2ccccc21 here?
Answer: inconclusive: 39.8 µM [inhibitor, partial curve, poor fit]

Question: For O=C(CCl)Nc1ccc(S(=O)(=O)NC2=NCCCCC2)cc1, which Potency is on record?
Answer: inconclusive: 37.7 µM [inhibitor, single point]

Question: With Cc1nc2sc3c(c2c(=O)n1NC(=O)CCBr)CCCC3 as the molecule, how does the Potency read?
Answer: inconclusive: 9.47 µM [inhibitor, single point]

Question: For COC(=O)[C@H]1C[C@@]2(O)CN(S(=O)(=O)c3ccc(C)cc3)C[C@@]2(OC(=O)Nc2cccs2)C[C@H]1C(=O)OC, which Potency is on record?
Answer: inactive

Question: For Cc1scc(C(=O)N/N=C/c2ccc(Cl)s2)c1C, which Potency is on record?
Answer: inactive

Question: With Cc1ccc(NS(=O)(=O)c2ccc(Cl)c(C(=O)Nc3ccccc3-c3nc4ccccc4[nH]3)c2)cc1C as the molecule, how does the Potency read?
Answer: inconclusive: 22.4 µM [inhibitor, single point]

Question: With CCc1ccccc1-n1c(C)nc2cc(C(=O)NCCc3ccc(Cl)cc3)ccc21 as the molecule, how does the Potency read?
Answer: inconclusive: 39.8 µM [inhibitor, single point]

Question: With O=C(Nc1ccc(CN2CCOCC2)cc1)c1ccc(N2CCCC2)c([N+](=O)[O-])c1 as the molecule, how does the Potency read?
Answer: inconclusive: 4.74 µM [inhibitor, partial curve, poor fit]

Question: With O=C(NCCCc1nc2ccccc2n1Cc1ccc(Cl)cc1)C1CCCCC1 as the molecule, how does the Potency read?
Answer: inconclusive: 39.8 µM [inhibitor, single point]

Question: With Cc1ccc(-c2ccc(=O)n(CC(=O)Nc3ccc4c(c3)OCCO4)n2)cc1 as the molecule, how does the Potency read?
Answer: inactive

Question: Which Potency does the source give for Cc1cccc(NC(=O)CSc2nc(C)c(CC(=O)c3ccc(Br)cc3)c(C)c2C#N)c1C here?
Answer: inconclusive: 15.8 µM [inhibitor, partial curve]

Question: For Cc1oc(-c2cccc(Cl)c2)nc1CN1CCCC(C(=O)NC(C)c2ccc3c(c2)OCCO3)C1 (configuration not stated), which Potency is on record?
Answer: inconclusive: 28.2 µM [inhibitor, single point]

Question: With CCc1nnc(NC(=O)CSc2nc(-c3ccccc3)cc(-c3ccc(F)cc3)c2C#N)s1 as the molecule, how does the Potency read?
Answer: inconclusive: 11.2 µM [inhibitor, partial curve]

Question: Which activity change, negative = inhibition does the source give for COc1cccc(/C=N/Nc2ccnc(=O)[nH]2)c1O here?
Answer: inconclusive: -63.2% [inhibitor]

Question: Which Potency does the source give for CCOC(=O)N1CCN(C(=O)c2cc(COc3ccc4ncccc4c3)on2)CC1 here?
Answer: inconclusive: 11.2 µM [inhibitor, partial curve, poor fit]

Question: Which Potency does the source give for Cn1c(=O)c2c(nc(SCc3ccccc3)n2Cc2ccc(Cl)cc2)n(C)c1=O here?
Answer: inconclusive: 35.5 µM [inhibitor, partial curve, poor fit]

Question: Which Potency does the source give for CCOC(=O)c1[nH]c2ccc(OC)cc2c1NC(=O)CCN1CCSCC1 here?
Answer: inactive

Question: With COc1ccccc1/C=C/C(=O)OCC(=O)Nc1ccc(Cl)cn1 as the molecule, how does the Potency read?
Answer: active: 25.1 µM

Question: For C[n+]1c2n(c3ccccc31)N=C(c1cc(C(C)(C)C)c(O)c(C(C)(C)C)c1)CS2, which Potency is on record?
Answer: inconclusive: 6.31 µM [inhibitor, partial curve, poor fit]

Question: For Cc1ccc(C(OCC(O)CNC(C)c2ccccc2)c2ccccc2)cc1 (configuration not stated), which Potency is on record?
Answer: inconclusive: 10.6 µM [inhibitor, partial curve, poor fit]

Question: With N=c1oc2cc(O)ccc2cc1C(=O)Nc1ccc(F)cc1 as the molecule, how does the Potency read?
Answer: inactive

Question: With CCN(CC)c1cc(CS(=O)c2ccccc2)nc(-c2ccccc2)n1 (configuration not stated) as the molecule, how does the Potency read?
Answer: inactive

Question: For CCCCCC(=O)N1C[C@H](O)[C@@H](n2cc(-c3ccc(F)cc3)nn2)C[C@@H]1c1ccc(C)cc1, which Potency is on record?
Answer: inconclusive: 25.1 µM [inhibitor, single point]

Question: For COc1ccc2c(c1)[nH]c(=O)c1sc3ccccc3c12, which Potency is on record?
Answer: inconclusive: 25.1 µM [inhibitor, partial curve, poor fit]

Question: With Cc1nc2cc(NS(=O)(=O)c3cccc(F)c3)ccc2s1 as the molecule, how does the Potency read?
Answer: inactive

Question: For Cc1ccc(S(=O)(=O)N2CCN(CC(=O)N3CCCC3)CC2)c(C)c1, which Potency is on record?
Answer: inactive

Question: Which Potency does the source give for CCOC(=O)c1cccc(NC(=O)/C=C/c2ccc3c(c2)OCO3)c1 here?
Answer: inconclusive: 39.8 µM [inhibitor, single point]

Question: Which Potency does the source give for COc1ccc(Nc2c3ccccc3nc3ccccc23)cc1 here?
Answer: inconclusive: 10 µM [inhibitor, partial curve]

Question: Which Potency does the source give for Cc1c(Cl)ccc2sc(N3CCN(C(=O)C(C)C)CC3)nc12 here?
Answer: inconclusive: 28.2 µM [inhibitor, partial curve, poor fit]

Question: Which Potency does the source give for CCOc1ccc(-n2c(N)c(C(=O)NCc3ccco3)c3nc4ccccc4nc32)cc1 here?
Answer: inconclusive: 14.1 µM [inhibitor, partial curve]

Question: Which Potency does the source give for OC(C#CCN1CCCCC1)(c1ccccc1)c1ccccc1 here?
Answer: inactive

Question: For CCOC(=O)c1ccc(N2C(=O)c3n[nH]c(-c4cccs4)c3C2c2ccc(OCC)cc2)cc1 (configuration not stated), which Potency is on record?
Answer: inconclusive: 39.8 µM [inhibitor, single point]

Question: For COc1ccc(OC)c(CCNC(=O)CS(=O)(=O)Cc2nc(-c3cccc(Cl)c3)oc2C)c1, which Potency is on record?
Answer: inconclusive: 39.8 µM [inhibitor, single point]

Question: Which Potency does the source give for Cc1ccc(-c2cc(C(=O)Nc3cc([N+](=O)[O-])ccc3C)no2)cc1F here?
Answer: inconclusive: 3.16 µM [inhibitor, partial curve, poor fit]

Question: For CCC(CC)c1nnc(NC(=O)c2ccc3ccccc3n2)s1, which Potency is on record?
Answer: inactive

Question: With COc1c(C)cc(C(O)c2ncc(-c3cccc(F)c3)[nH]2)cc1C (configuration not stated) as the molecule, how does the Potency read?
Answer: inactive

Question: For COc1ccc2sc(-c3ccccc3OC)c(-c3ccc(OCCN4CCOCC4)cc3)c2c1, which Potency is on record?
Answer: inactive

Question: Which Potency does the source give for Cc1c(C(=O)NNC(=O)Nc2ccc([N+](=O)[O-])cc2)oc2ccccc12 here?
Answer: inconclusive: 28.2 µM [inhibitor, single point]

Question: With Cc1cc(OCCCCCn2ccnc2)cc(C)c1Cl as the molecule, how does the Potency read?
Answer: inconclusive: 15.8 µM [inhibitor, partial curve, poor fit]

Question: Which Potency does the source give for COc1cccc(-c2nnc(SCC(=O)N3CCOCC3)o2)c1 here?
Answer: inactive

Question: For Cc1ccc(Cn2c(C(=O)O)c(CNCc3ccc(OC(C)C)cc3)c3ccc(C)cc32)cc1, which Potency is on record?
Answer: inconclusive: 28.2 µM [inhibitor, single point]

Question: Which Potency does the source give for Cc1c(CCC(=O)NCCc2ccccc2)c(=O)oc2c(C)c(O)ccc12 here?
Answer: inactive

Question: For COc1ccc(Cl)cc1C(=O)Nc1ccccc1N1CCN(C(=O)C(C)C)CC1, which Potency is on record?
Answer: active: 22.4 µM

Question: With Cc1ccc(SCCNC(=O)c2ccc(C)c(S(=O)(=O)Nc3cccc(C)c3)c2)cc1 as the molecule, how does the Potency read?
Answer: inconclusive: 31.6 µM [inhibitor, single point]

Question: Which Potency does the source give for Cc1ccccc1Nc1cc(C(=O)NCCCN2CCN(c3cccc(Cl)c3)CC2)c2ccccc2n1 here?
Answer: inconclusive: 25.1 µM [inhibitor, single point]

Question: Which Potency does the source give for CCCNC(=O)C1(C)CCN(Cc2csc3ccccc23)C1 (configuration not stated) here?
Answer: inactive

Question: For Cc1[nH]c2ccccc2c1C(=O)/C=C\c1ccccc1Cl, which Potency is on record?
Answer: inactive

Question: Which Potency does the source give for O=C(Nc1cccc(Cl)c1)C1C2CCC3C(CCC21)C3(Cl)Cl (configuration not stated) here?
Answer: inconclusive: 39.8 µM [inhibitor, single point]

Question: Which Potency does the source give for NC(=O)N/N=C\c1cc(Br)ccc1O here?
Answer: inconclusive: 42.3 µM [inhibitor, single point]

Question: Which Potency does the source give for CN(CC(=O)Nc1ccc(Cl)c(C(F)(F)F)c1)C(=O)CC1Sc2ccccc2NC1=O (configuration not stated) here?
Answer: inconclusive: 25.1 µM [inhibitor, partial curve, poor fit]

Question: With COc1ccc(NC(=O)O/N=C2/CCCc3ccc(OC)cc32)cc1 as the molecule, how does the Potency read?
Answer: inconclusive: 7.94 µM [inhibitor, partial curve, poor fit]

Question: Which Potency does the source give for CC(C)CC1C(=O)N(Cc2cn(Cc3ccco3)nn2)CCS(=O)(=O)N1Cc1ccc(-c2cccc(CO)c2)cc1 (configuration not stated) here?
Answer: inconclusive: 31.6 µM [inhibitor, single point]

Question: Which Potency does the source give for CCc1cccc2sc(N3CCN(C(=O)c4ccc([N+](=O)[O-])o4)CC3)nc12 here?
Answer: inconclusive: 35.5 µM [inhibitor, single point]

Question: With COc1ccsc1C(=O)N1CCN(Cc2ccc3c(c2)OCO3)CC1 as the molecule, how does the Potency read?
Answer: inactive

Question: For O=C(NCc1ccccc1C(F)(F)F)c1cccc2c1C(=O)c1ccc(N3CCC(N4CCCCC4)CC3)cc1S2(=O)=O, which Potency is on record?
Answer: active: 28.2 µM

Question: Which Potency does the source give for O=C(Nc1ccc(Cl)cn1)C1CCN(c2ncnc3c2nc2n3CCCCC2)CC1 here?
Answer: inconclusive: 3.55 µM [inhibitor, partial curve, poor fit]

Question: With Cn1c(/N=C/c2cccs2)nc2ccccc21 as the molecule, how does the Potency read?
Answer: inactive

Question: For CS(=O)(=O)c1ccc(S(=O)CC(=O)OCc2ccccc2)c([N+](=O)[O-])c1 (configuration not stated), which Potency is on record?
Answer: inconclusive: 37.7 µM [inhibitor, single point]

Question: For C=CCn1c(C)cc(C(=O)Cn2ncc(Cl)c(Cl)c2=O)c1C, which Potency is on record?
Answer: inconclusive: 39.8 µM [inhibitor, single point]
